From PMC3352084
Results are given in words; binding and its absence hold for the method and conditions named. Binding seen in cells or lysates may run through a third protein. Some binding calls cover weakened binding; strength is not graded here. Where a sequence is shown, tags or fusion partners need not be part of it.

The chains behind the UniProt entries cited, without tags or fusion partners.
UniProt Q9Y7K2: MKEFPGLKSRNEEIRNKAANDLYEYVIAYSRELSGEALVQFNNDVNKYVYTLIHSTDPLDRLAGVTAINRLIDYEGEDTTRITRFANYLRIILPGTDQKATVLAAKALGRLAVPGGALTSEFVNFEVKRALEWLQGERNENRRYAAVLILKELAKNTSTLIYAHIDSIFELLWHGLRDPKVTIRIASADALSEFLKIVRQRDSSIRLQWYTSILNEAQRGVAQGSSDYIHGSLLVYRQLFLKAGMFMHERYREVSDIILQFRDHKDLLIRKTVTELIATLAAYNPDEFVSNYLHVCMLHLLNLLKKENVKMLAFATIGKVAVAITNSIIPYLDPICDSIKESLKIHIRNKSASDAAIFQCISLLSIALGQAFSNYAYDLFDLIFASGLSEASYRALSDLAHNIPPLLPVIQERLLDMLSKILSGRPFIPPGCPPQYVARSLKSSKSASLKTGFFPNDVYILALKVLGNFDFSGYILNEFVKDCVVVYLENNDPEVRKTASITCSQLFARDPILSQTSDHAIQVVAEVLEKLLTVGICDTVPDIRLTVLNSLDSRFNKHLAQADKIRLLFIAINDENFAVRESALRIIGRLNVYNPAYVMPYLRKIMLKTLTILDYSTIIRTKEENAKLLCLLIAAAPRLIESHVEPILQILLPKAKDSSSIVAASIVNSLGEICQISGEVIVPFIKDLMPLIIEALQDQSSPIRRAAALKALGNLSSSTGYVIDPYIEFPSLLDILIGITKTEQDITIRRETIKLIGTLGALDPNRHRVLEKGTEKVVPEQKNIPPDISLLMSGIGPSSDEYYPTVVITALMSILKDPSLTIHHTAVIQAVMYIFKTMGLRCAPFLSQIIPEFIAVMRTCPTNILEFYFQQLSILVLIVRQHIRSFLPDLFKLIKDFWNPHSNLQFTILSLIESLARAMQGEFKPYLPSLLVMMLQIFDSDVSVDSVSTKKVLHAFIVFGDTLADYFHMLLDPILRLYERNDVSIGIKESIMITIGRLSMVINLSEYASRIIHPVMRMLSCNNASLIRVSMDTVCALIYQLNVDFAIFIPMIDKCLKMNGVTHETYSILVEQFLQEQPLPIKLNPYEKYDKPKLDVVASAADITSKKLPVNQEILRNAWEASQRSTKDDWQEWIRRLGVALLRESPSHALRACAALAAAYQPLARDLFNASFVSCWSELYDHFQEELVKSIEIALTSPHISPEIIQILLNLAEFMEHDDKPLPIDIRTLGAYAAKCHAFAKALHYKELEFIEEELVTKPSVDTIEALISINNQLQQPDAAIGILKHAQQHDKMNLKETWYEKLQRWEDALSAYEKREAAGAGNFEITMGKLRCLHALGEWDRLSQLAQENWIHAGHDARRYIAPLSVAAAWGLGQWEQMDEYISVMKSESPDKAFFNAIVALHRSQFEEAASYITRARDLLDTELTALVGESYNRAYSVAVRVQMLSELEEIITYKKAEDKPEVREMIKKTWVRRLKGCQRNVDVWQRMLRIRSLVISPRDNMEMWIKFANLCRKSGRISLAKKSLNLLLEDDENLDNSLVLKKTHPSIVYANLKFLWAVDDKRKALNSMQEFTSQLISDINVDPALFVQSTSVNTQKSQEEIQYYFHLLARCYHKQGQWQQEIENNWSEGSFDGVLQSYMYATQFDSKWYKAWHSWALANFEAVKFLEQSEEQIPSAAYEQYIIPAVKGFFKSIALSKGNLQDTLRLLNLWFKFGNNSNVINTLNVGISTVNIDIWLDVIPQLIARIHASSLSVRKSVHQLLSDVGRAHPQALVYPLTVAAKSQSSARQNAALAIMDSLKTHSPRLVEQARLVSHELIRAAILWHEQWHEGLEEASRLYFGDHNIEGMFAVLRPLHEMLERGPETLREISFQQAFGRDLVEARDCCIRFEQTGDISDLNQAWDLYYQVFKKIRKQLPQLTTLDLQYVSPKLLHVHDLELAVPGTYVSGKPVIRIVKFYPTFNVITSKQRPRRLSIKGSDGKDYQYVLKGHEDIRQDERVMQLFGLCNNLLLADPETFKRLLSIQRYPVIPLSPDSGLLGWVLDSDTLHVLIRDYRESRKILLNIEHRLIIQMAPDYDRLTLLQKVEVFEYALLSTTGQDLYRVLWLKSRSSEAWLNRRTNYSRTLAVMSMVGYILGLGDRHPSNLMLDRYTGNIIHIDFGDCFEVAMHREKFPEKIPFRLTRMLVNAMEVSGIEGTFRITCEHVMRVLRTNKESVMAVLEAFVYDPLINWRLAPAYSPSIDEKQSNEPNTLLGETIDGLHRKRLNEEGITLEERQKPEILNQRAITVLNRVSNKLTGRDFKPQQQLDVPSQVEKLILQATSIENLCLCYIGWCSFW

Biological target: FLAG-tagged Tor2 (catalytic subunit of TORC1) (Schizosaccharomyces pombe) (UniProt Q9Y7K2)
Assay: co-IP; anti-FLAG immunoprecipitation from S. pombe extracts, immunoblot with anti-GFP; cells grown vegetatively in EMM2 for 24 h at 26°C, and G0 phase cells after 24 h nitrogen starvation at 26°C; extraction buffer 25 mM HEPES–KOH pH 7.5, 200 mM NaCl, 10% glycerol, 0.1% NP-40, 1 mM PMSF; non-FLAG-tagged strains as control

Row | Binder | binding
1 | GFP-tagged Bit61 (TORC2 regulatory subunit) (protein, UniProt O74547 1-422) MVGRGSFSSTSSASSINWIPKNTKTSIESVSNTISLSENGQNQDLETVTTKESNVGDSDTTENIKSPFNGQWPFSRRSSQSSSHPVFEETHWSKHSKRPGKLNVLTPTSPSNVNAEVQSISTKTQLSLLNLSPHKHKKPKDGLDLSALQKTLNGSRNFLRGRRDAGGIFGASIPQSLVTNQIINGFGAASLAFAKLGKVRSPLEGRFNLVPISADETWLIVESEVCSLYSGEALHYSLEDLNGILILHLQALIRDTKMNEFVGHLETLFRKATKCLSDSLSPVPEELFLNRIIETWLFFFSSVLPYVQGVFLPIKTKLFDEQEKTQLPYEVNEFCSTNREKLNVHRLALMTFRDYMVLPIANRIQICIGRAESAENALDNAGEVFARLFQILSLLASVRTNDSKEQEITNLATKVRCLLIAS | no binding
2 | GFP-tagged Tco89 (TORC1 regulatory subunit) (protein, UniProt O74428 1-451) MERPSLSRRTSSSTVSTDGEGVYSRSTKERKRNFIVNSRLKRGGGHVRVNRSGRLGSVTMRPSALTRAHSQNPNSSLVNNSSAVSHLTKQRSLNDLHELNGPKHVAKNGLIPLTQRKPNCVWDDAPVDNDSTAGNLDSDSALPTPSVTTNEAADSSRASSPVTRVVAVHDNKKKIINSNISNAPPFNNTDVQASARPPAAGQDDSAADASTTKSSPVHNEVMAEPLPHSNNREVTQATNQPKWQIHSGSDIASEPPTLSRGNSLSLLANRKVPSTNVKKSQAELYDLGSSTSRTQQKLLIQRASSKFDIVEDDMDTNPSKRFSNPHTKHIMDLVRTQYRNVLRTRELIPEFLEKIRSSYSNNQNFDSQNAFNTSAAGTAGTREETISNGQNGIVASAETSKKDDGVQSASLNASMSARSHARQRSIHVPKTRKDTDYESIHQKLLQLWSQG | binds
3 | GFP-tagged Ste20 (TORC2 regulatory subunit, Rictor homologue) (protein, UniProt Q09743 1-1309) MKPVRRGQTDTALDISSHAKTNGDFIKKMNTTDSKRLKLLEDLKGKLEVECKIRDGAETLLQVFDTNFKKETKERKEMLKKKCTDELESSKKKIEELVSSIESFQGENGEAKTGSTSLTRSASATVSRKSSLQEKYSTRFSYKAGCSDSCSVTVSGTGELIGPTRNAHSNLTPTVIQRIDFENVNEKNNSSSEDTQPNGKRPSSLQSNFSQFPLNPWLDNIYKACLEGSMKDVIDSSNNLCEYLHEHSDPAYAKNFSLITPTILSMLELNVSEVTASVYRLLRHLFLDATAFSCCQMLNLPWILSKSLLSGTDAYQIEREQAFRLIRTLYFLSSTEGHEDYLSGITRTIISICEHVSDVSRGIAVETLIELMIIRPKILFKANGLRVLMISLIDGSISENLAASAALALVYLLDDPESACYVNLPYDIGILLSPFTSSSSRDTFNSSEEQSEQAAKAMKSSAKVASVLLNSWSGLLALSTNDFQALRSIVDTLRVPSFAPRSDVIDLFFLIFQVEYSSWSESFLAGKRLTVVKNQAVSNDDNINMVNIPDGSNKKYMSLRQHFTAVLLFIFLELGLVESIVCMIRASDDPSASRKATYLLGEVLRLSDELLPIHLGAKIQSLPSLFNMASQFTAEDRFVATSVLQSIESLNRVKFHSATQPFSQTTSLLFKEQKTDGSFRGQRQVEHVKLKMGMQIDDSHFRSMLAETNVLATKNYQKWRWDTLVQIMEGPLLSPKRIDETLRTTKFMRRLLAFYKPFSNRFSSIQNTKPNQKFIKVGCLVFRTLLANPEGVKYLSESKVIKQIAESLSQIDGYSEQVSEPIFSNSRLQKTLTHGYFPMLKVLSSQKEGHAIMERWRIFTTLYHLTELRNRDDLIIIFLTNLDYRLEGHTRIIFSKALNTGQQAVRLTATKHLAALINSESANDNLNHWAISLLIFQLYDPCLEVCKTAVKVLNEVCARNENLLAQVVQLQPSLAHLGEIGSPLLLRFLATTVGFHYLSEINFIEHELDNWYHHRNIDYVDLLEQNFFLSFVSNLKIIDKKNNEPDENILPLHFYGELVKSPQGCEVLESSGHFESFMGTLVEFYDKPLGNEAIRQLKSALWAIGNIGKTDQGITFLINHDTIPLIVKYAENSLIPTVRGTAYFVLGLISRTSKGVEILESLHWYSLMSLMGTSQGICIPRHAGQVLSTPRRNVEFVNERVPTPEFSSLLSSLTNSEREVIRLVSNLSNHVLTNESARQLTKIRSKNAKVFSSKRLVKACMTILGKFHYRVQIQQFVFELFPYSVLLSSSTSQDLNESPSRPNNLSISA | no binding
4 | GFP-tagged Mip1 (TORC1 regulatory subunit, Raptor homologue) (protein, UniProt P87141 1-1313) MNDRISEVSGSSRARRSVLSYGTTETGSDRYTENSNIATENGVDTASSMIDGIQSGFPQPRHGFEEEYNNAEYINMLEQVFYMYYTDKRHRGVISKKNAEPTETIHDWRMRERLKTVSAALLVCLNIGVDPPDVIKPNPAAKYECWIDPFSLPASKALEAIGKNLQQQYETLSMRTRYRHYLDPAIEEVKKLCIGQRRNAKEERILFHYNGHGVPMPTASGEIWVFNKNYTQYIPVSLYDLQSWLGAPCIYVYDCSAAGNIIVNFNRFAEQRDKEALRIAKQNPNVLAMPSHTSCIQLAACGPKETLPMNPDLPADLFTSCLTSPIEISVRWYVLQNPFPNKLNLNMLLKIPGRLQDRRTPLGELNWIFTAITDTIAWNVFPKHLFRRLFRQDLMVAALFRNFLLAERIMLVHSCHPQSSPELPPTHDHPMWNSWDLAIDNCLSQLPDMLDAESKGIAYEYKHSTFFSEQLTAFEVWLSQGLISRKPPDQLPLVLQVLLSQVHRLRALILLSKFLDLGVWAVDLALSIGIFPYVLKLLQSPAIELKPVLVFIWARILAVDDSCQADLLKDNGYGYFVQILNPNSSIFPSSNISEHRAMCAFILSVFCRGFPQGQLACLNPQVLSHCLSHLNSPDSLLRQWACLCISQLWENYSEAKWSGTRDNAHVKLAEIIVDSVPEVRASVLTAFTTFLGFPEKTEEVVAVETYIAIAALAALSDASPLVRHELVIFLSHFVVNYKKQLMVVAYESSLADILEKKNHNSISASTIYETVWQAVLVLAADPSIEISLAAEAIINYVYQSMLNSELRESFLAFLLQHLPALHKASLSKDTDTNSVTSDPKPHPFVPSVSENKILNRSFSLTRSLKGLALSLAGSDRASELLSLNGENKPAESNLNHLTSAKVPGPPAFNELEYQSELDMPLTSYLFDWSRKYFTEPQMRPNEDDEPGSICYNQRLWRRNRNEKLIYRTRPLAEYSTNGRWNQQLMTFNNTIAPRKLMFHQFEDQLITLGDKDIIQVWDWRRNRCLNSFKTSASATTNVTDMQLLNEDDVALLMTGSSDGTIKLYRDYENEKVELVTSWNSLSDLVFGDRNASLLMSWQQNCGHLLVAGDVRVIRIWDASKEICYANLPVRSSNSITSLTSDLVGCNIIVAGFSDGVLRVYDKRLPARDSLTDVWKEHSSEIVNVEMQSSGMRELISASSDGEVKLWDIRMNHSLQTFSTDNSGLTSLTVHSHAPVYATGSSNQSIKIWDTLGQNINTFRENPRFLNQPKPSSLMCLKFHPHHLLLACGDNTDSRVNLYSCTKNEIHTDSPNEF | binds
5 | GFP-tagged Sin1 (TORC2 regulatory subunit) (protein, UniProt Q9P7Y9 1-665) MELTREKVLLLTFLRMQYSHILPDSIENRVISTEAPEWELDKSLQDLLIHDYDYSKTSFSSSPPIVANDTVSNVRKPSDTKQVNGAGGQVNHSRAEDSDYATSDLSESSDVGDDDNSCIFSFSKVPMQKDVASIKEEERLDPKISTLNNIDAIANLKLTNMVESSQAVNLTSSKQSSINQQSSVSTDYDDLRSISEESFHLSQGEIPLTFPMNSSLTDTEADAVVAVDALFPGKQRGTHNTVNKARSVSNAKAPTSALRALLEHKENSSQNGPLAENFATFSGHAESNALRLNIYFPSSESPSKPLFVELRKNVLVSEAIGYILLQYVNQQLVPPIEDEAQNPNYWNLRIVEDDGELDEDFPALDRVGPLSKFGFDAFALVKATPAQIKENQAAYPFKSKHPTSIPEANNKTHIRHTSSTSSQSQKQAQDVKDTLNTSHVVQVRLPPYGDNARFCNIEISKTTRLAMVLNQVCWMKQLERFKYTLRVAGSDTVLPLDKTFSSLDGNPTLELVKKKVRDKKGSTQQLPTSSPQNSVYGSIKKDAQSSTYNATDIMSSNTYQEFLVWKRQPVSFMGRHERLLAIDGEYVHIMPSESKNIFETPKTSSIHAGSIILCKQSKKSPCNFKMIVSKNRETKRYDFEVLSALEAAIIVSRIRALMNTVKKIN | no binding
